Measurements published in PMC4336329 (PLoS ONE, 2015).
About 14,000 (4.5%) of roughly 310,000 compounds showed an effect of 50% or more. The effect is printed as a negative number. This is one part of the list.
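Also: peak tail current of the secondary pulse compared with the same well before compound.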

Each molecule was assayed against human ether-à-go-go-related gene (hERG) potassium channel (human, UniProt Q12809) (assay: primary screen, population patch clamp on CHO cells stably expressing hERG).
human ether-à-go-go-related gene (hERG) potassium channel, sequence (Q12809 whole entry, looked up): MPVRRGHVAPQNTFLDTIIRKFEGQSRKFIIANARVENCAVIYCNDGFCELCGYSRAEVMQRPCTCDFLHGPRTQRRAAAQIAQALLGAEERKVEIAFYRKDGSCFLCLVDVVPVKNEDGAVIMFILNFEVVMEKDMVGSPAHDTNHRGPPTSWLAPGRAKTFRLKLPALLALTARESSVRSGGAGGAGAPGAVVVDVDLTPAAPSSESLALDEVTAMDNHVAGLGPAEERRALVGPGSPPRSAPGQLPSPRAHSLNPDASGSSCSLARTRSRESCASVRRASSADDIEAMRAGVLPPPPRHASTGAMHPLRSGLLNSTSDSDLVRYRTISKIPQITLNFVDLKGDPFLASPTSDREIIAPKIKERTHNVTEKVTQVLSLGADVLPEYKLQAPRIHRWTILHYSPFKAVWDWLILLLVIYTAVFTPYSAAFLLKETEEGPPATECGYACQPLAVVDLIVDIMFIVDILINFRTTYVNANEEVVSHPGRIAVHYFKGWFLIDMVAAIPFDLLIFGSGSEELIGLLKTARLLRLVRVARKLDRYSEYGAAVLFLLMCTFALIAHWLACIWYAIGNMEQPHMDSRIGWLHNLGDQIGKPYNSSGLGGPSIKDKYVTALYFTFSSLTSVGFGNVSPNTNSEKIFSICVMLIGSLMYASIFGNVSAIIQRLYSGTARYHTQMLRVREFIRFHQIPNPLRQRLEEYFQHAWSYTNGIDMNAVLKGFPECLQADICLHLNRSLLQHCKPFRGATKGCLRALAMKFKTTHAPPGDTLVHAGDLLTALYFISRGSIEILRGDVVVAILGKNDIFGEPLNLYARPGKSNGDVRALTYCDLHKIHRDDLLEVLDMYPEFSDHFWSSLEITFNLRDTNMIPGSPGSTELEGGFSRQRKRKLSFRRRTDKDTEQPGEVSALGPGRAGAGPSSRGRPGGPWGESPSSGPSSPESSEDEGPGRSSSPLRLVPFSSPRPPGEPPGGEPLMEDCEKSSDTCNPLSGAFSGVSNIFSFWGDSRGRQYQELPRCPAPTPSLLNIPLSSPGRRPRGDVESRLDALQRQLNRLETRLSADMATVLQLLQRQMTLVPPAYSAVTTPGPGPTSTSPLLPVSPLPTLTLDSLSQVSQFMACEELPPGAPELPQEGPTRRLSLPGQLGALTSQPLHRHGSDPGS
In the case of `Cc1ccc(C)c(CN2C(=O)C3CCCN3c3ccc(S(=O)(=O)N4CCOCC4)cc32)c1` (stereo not drawn), the “hERG current change (%, negative = inhibition) at 10uM” value is reported as 13.1%. `O=C(Nc1ccccc1)N(C1=NCCC1)c1ccc(OC(F)F)cc1` was tested, and the “hERG current change (%, negative = inhibition) at 10uM” value was -33.1%. `O=C(NCc1ccc(F)cc1)c1cccc(NC2=NC3CS(=O)(=O)CC3S2)c1` (stereo not drawn) was tested, and the “hERG current change (%, negative = inhibition) at 10uM” value was -0.333%. In the case of `COc1ccc(-c2nc3c(c(=O)n(C)c(=O)n3C)n2CC2CC(c3ccccc3)=NO2)cc1OC` (stereo not drawn), the “hERG current change (%, negative = inhibition) at 10uM” value is reported as -27.8%. With `COc1ccc2[nH]cc(CCNS(=O)(=O)c3ccc(NC(C)=O)cc3)c2c1` the “hERG current change (%, negative = inhibition) at 10uM” value was 14.5%. With `Cc1ccccc1S(=O)(=O)Cc1ccc(C(=O)NC2CC2)o1` the “hERG current change (%, negative = inhibition) at 10uM” value was 13.7%. In the case of `CC(NCC(O)COc1ccc(S(=O)(=O)N2CCOCC2)cc1)c1ccccc1` (stereo not drawn), the “hERG current change (%, negative = inhibition) at 10uM” value is reported as -1.23%. `CCOC(=O)/C(N=Nc1sc(C(=O)OCC)c(C)c1C(=O)OCC)=C(\C)O` was tested, and the “hERG current change (%, negative = inhibition) at 10uM” value was -8.97%. With `COc1cccc(NC(=S)NNC(=O)C(C)n2nc(C)c([N+](=O)[O-])c2C)c1` (stereo not drawn) the “hERG current change (%, negative = inhibition) at 10uM” value was 15.3%. With `COC(=O)c1oc2ccc(Cl)cc2c1NC(C)=O` the “hERG current change (%, negative = inhibition) at 10uM” value was 1.43%. In the case of `CN1CCN(c2cc3c(cc2F)c(=O)c(C(=O)O)cn3CCF)CC1`, the “hERG current change (%, negative = inhibition) at 10uM” value is reported as 7.88%. `CCCN(CC(=O)Nc1ccccc1C)C(=O)c1ccc2[nH]c3c(c2c1)CC(C)CC3` (stereo not drawn) was tested, and the “hERG current change (%, negative = inhibition) at 10uM” value was -29.3%. With `COc1ccc(-n2nc3cc(C)c(N)cc3n2)cc1Cl` the “hERG current change (%, negative = inhibition) at 10uM” value was 6.55%. With `CCc1nc(NCC2CCCN2CC)c2nnn(Cc3ccccc3F)c2n1` (stereo not drawn) the “hERG current change (%, negative = inhibition) at 10uM” value was -54.2%. For `CCn1c(SCC(=O)Nc2ccc(N3CCOCC3)cc2)nnc1-c1ccc(OC)cc1`, the “hERG current change (%, negative = inhibition) at 10uM” value was -14.8%. With `O=[N+]([O-])c1cccc(S(=O)(=O)NCCCn2ccnc2)c1` the “hERG current change (%, negative = inhibition) at 10uM” value was -29.5%. With `Cc1oc(-c2cccc(Cl)c2)nc1CN1CCC(C(=O)N2CCN(c3ccccn3)CC2)CC1` the “hERG current change (%, negative = inhibition) at 10uM” value was -68.5%. For `Cc1cc(C)cc(NC(=O)c2ccc(S(=O)(=O)NCc3cccnc3)cc2)c1`, the “hERG current change (%, negative = inhibition) at 10uM” value was -8.3%. For `CC(=O)Nc1cccc(NC(=O)CSc2ccc(-c3cccnc3)nn2)c1`, the “hERG current change (%, negative = inhibition) at 10uM” value was 7.43%. `COC(=O)C(Cc1c[nH]c2ccccc12)NC(=O)c1ccccc1Br` (stereo not drawn) was tested, and the “hERG current change (%, negative = inhibition) at 10uM” value was 18.7%. For `COc1ccc(-c2cc(C(=O)N3CCN(C(=O)c4ccccc4F)CC3)[nH]n2)cc1`, the “hERG current change (%, negative = inhibition) at 10uM” value was 1.84%. In the case of `Cc1ccc(N(Cc2ccccc2)C(=O)c2cccc(F)c2)cc1`, the “hERG current change (%, negative = inhibition) at 10uM” value is reported as 13.9%. `CC(O)C(NC(=O)OCc1ccccc1)C(=O)OCc1ccccc1` (stereo not drawn) was tested, and the “hERG current change (%, negative = inhibition) at 10uM” value was -12.5%. For `COc1cccc(/C=C/C(=O)OCC(=O)Nc2ccc3[nH]c(=O)[nH]c3c2)c1OC`, the “hERG current change (%, negative = inhibition) at 10uM” value was -14%. `CCC(C)NS(=O)(=O)c1ccc(NS(C)(=O)=O)cc1` (stereo not drawn) was tested, and the “hERG current change (%, negative = inhibition) at 10uM” value was -2.81%. `Cc1cc2ncc(S(=O)(=O)c3ccccc3)c(N)n2n1` was tested, and the “hERG current change (%, negative = inhibition) at 10uM” value was 14.4%. For `O=C1N=C(N2CCN(c3cccc4ccccc34)CC2)S/C1=C/c1cccs1`, the “hERG current change (%, negative = inhibition) at 10uM” value was 11.9%. With `COc1cccc2c1-c1c(C(=O)O)cccc1C2=O` the “hERG current change (%, negative = inhibition) at 10uM” value was 15.7%. With `CC1=CC(=C(C#N)C#N)C=C(C)N1CCN1CCNCC1` the “hERG current change (%, negative = inhibition) at 10uM” value was -3.73%. With `N#Cc1ccc(C(=O)Nc2ccc(S(=O)(=O)NC3=NCCCCC3)cc2)cc1` the “hERG current change (%, negative = inhibition) at 10uM” value was -1.54%. For `c1ccc2c(c1)ccc1nnc(SCc3ccc4c(c3)OCO4)n12`, the “hERG current change (%, negative = inhibition) at 10uM” value was -3.51%. For `CSc1nc(=O)n2cc(C)ccc2n1`, the “hERG current change (%, negative = inhibition) at 10uM” value was 5.4%. `CCOC(=O)C1CCCN(C(=O)c2cc3c(-c4cccc(OC)c4)nn(C)c3s2)C1` (stereo not drawn) was tested, and the “hERG current change (%, negative = inhibition) at 10uM” value was -60.7%. In the case of `N#C/C(=C\c1ccccc1)C(=O)NC1CC1`, the “hERG current change (%, negative = inhibition) at 10uM” value is reported as 11.3%. For `COc1ccc(CNC(=O)c2ccc3c(c2)NC(=O)C(C)S3)cc1` (stereo not drawn), the “hERG current change (%, negative = inhibition) at 10uM” value was 10.1%. `CCOC(=O)c1sc2nc(CSc3ccccc3)nc(NCCN(C)C)c2c1C` was tested, and the “hERG current change (%, negative = inhibition) at 10uM” value was -17.4%. With `COc1ccc(CCNC(=O)c2cc(S(=O)(=O)N(C)C)ccc2N2CCCC2)cc1` the “hERG current change (%, negative = inhibition) at 10uM” value was 4.26%. In the case of `COc1ccc(F)cc1CN1CCN(C(=O)CCC(=O)Nc2nnc(C3CCCCC3)s2)CC1`, the “hERG current change (%, negative = inhibition) at 10uM” value is reported as -6.04%. `Cc1sc(NC(=O)c2cc(-c3ccc(Cl)cc3)nc3ccccc23)c(C(N)=O)c1C` was tested, and the “hERG current change (%, negative = inhibition) at 10uM” value was 5.31%. In the case of `Cc1ccc(C)c(C(=O)N2CCC(n3nccc3NC(=O)C3CC3)CC2)c1`, the “hERG current change (%, negative = inhibition) at 10uM” value is reported as -0.405%. With `CC(C)(C)c1csc(CS(=O)(=O)c2ccccn2)n1` the “hERG current change (%, negative = inhibition) at 10uM” value was -6.8%. `COc1cccc(N=C2SC(C(=O)Nc3ccc(F)cc3)CC(=O)N2C)c1` (stereo not drawn) was tested, and the “hERG current change (%, negative = inhibition) at 10uM” value was -11%.
